# Hit rate of the full screen: of about 310,000 compounds, about 2,200 (0.71%) showed an effect of 50% or more. Effects have a minus sign here. This is one part of the list.
# Molecular target: human ether-à-go-go-related gene (hERG) potassium channel (human, UniProt Q12809)
# Assay: primary screen, population patch clamp on CHO cells stably expressing hERG
# Sequence of human ether-à-go-go-related gene (hERG) potassium channel (Q12809 whole entry, looked up): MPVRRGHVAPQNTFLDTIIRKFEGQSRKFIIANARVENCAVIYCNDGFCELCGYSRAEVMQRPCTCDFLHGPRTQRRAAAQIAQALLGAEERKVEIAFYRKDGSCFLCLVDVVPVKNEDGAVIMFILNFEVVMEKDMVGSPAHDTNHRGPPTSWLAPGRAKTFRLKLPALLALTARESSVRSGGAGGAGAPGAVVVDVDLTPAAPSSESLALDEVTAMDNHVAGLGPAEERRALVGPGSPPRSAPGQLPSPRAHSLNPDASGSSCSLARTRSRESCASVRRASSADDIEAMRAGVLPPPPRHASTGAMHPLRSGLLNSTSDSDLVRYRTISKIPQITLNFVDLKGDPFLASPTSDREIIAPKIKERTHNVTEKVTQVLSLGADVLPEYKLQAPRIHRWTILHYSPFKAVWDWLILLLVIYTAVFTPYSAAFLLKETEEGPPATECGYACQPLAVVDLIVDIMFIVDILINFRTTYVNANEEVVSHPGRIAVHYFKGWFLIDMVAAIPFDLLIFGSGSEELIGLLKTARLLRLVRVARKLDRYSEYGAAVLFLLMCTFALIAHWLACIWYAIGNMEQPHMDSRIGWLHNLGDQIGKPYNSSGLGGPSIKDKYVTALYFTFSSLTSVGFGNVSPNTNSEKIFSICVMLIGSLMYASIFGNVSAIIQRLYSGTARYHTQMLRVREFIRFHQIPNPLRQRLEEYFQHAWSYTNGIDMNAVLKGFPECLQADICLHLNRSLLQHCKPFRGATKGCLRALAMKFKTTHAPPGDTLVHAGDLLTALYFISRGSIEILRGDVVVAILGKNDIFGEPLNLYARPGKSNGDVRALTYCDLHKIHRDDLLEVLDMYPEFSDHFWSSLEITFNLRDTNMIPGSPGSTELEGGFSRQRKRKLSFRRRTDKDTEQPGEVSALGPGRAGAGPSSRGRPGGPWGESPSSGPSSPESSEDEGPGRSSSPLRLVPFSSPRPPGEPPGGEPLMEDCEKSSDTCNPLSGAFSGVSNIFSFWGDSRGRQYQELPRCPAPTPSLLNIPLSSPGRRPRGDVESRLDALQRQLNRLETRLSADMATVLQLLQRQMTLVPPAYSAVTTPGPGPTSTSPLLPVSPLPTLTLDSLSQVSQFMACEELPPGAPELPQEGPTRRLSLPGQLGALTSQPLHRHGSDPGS
row,Compound,"hERG current change (%, negative = inhibition) at 1uM [%]"
1,COc1ccccc1N1CCN(C(=O)c2cc(-c3ccc(Br)cc3)on2)CC1,20
2,COc1ccc(C(=O)NC(=S)Nc2cc(C)ccn2)cc1[N+](=O)[O-],17.3
3,COCCNC(=O)C(c1ccc(F)cc1)N(Cc1cccs1)C(=O)CCC(=O)Nc1ccccn1 (centres unmarked),16.6
4,NNC(=S)Nc1ccc(Cl)cc1,7.28
5,CC(C)(C)NC(=S)NC(=O)C12CCC3CC(CC(C3)C1)C2,1.94
6,Cn1c(SC(C(=O)Nc2ccc(F)cc2)c2ccccc2)nc2ccccc21 (centres unmarked),10.2
7,CCCOc1ccc(/C=C/c2c([N+](=O)[O-])c(=O)n(C)c(=O)n2C)cc1,15.3
8,Cc1ccc(S(=O)(=O)/C(C#N)=C/c2c(N3CCOCC3)nc3c(C)cccn3c2=O)cc1,-21.2
9,COc1ccc(Cn2nnnc2C(c2cccs2)N2CCN(c3ccccc3)CC2)cc1 (centres unmarked),9
10,COCCN(C(=O)CCC(=O)Nc1cc(C)on1)C(C(=O)NC(C)(C)C)c1cccc(OC)c1OC (centres unmarked),8.83
11,COC(=O)c1ccc(C(=O)OC)c(NC(=O)CS(=O)(=O)Cc2ccccc2)c1,-7.98
12,Cc1ccc2occ(/C=N/NC(=O)c3ccccc3C)c(=O)c2c1,12.8
13,O=C(Cc1ccsc1)Nc1ccc(Cl)cc1Cl,16
14,Cc1ccc(-c2csc3ncnc(SCC(=O)O)c23)cc1,1.72
15,CCN=C1S/C(=C\c2cn(CC(=O)NCc3ccco3)c3ccccc23)C(=O)N1CC,13.8
16,N#Cc1c2c(c(NCCCN3CCOCC3)n3c1nc1ccccc13)CCC2,-10.1
17,CCc1ccc(-c2cc(C)no2)cc1S(=O)(=O)Nc1cc(C)on1,13.8
18,Cc1sc(NC(=O)c2ccco2)nc1-c1ccccc1,12.7
19,O=C(Nc1cc(C(F)(F)F)cc(C(F)(F)F)c1)c1ccc(Cn2cc(C(F)(F)F)ccc2=O)cc1,7.82
20,O=C(OCc1nc2ccccc2s1)[C@@H]1CCCN1S(=O)(=O)c1ccccc1F,4.54
21,O=C(Nc1ccncc1)C1CCN(S(=O)(=O)c2cccs2)CC1,11.1
22,COc1ccc(-c2nnc(SC(C)C(=O)NC3CC3)o2)cc1 (centres unmarked),12.3

row,Compound,"hERG current change (%, negative = inhibition) at 1uM [%]"
1,Cc1ccc(/C=C/C(=O)Nn2cnnc2)cc1,8.62
2,Br.CCN(CC)CCn1c(=N)n(CC(=O)c2ccc(Br)s2)c2ccccc21,-6.42
3,Cc1ccc(S(=O)(=O)c2nc(Cc3ccccc3)oc2N2CCOCC2)cc1,2.15
4,O=C(CCn1cccc1)Nc1cccc(F)c1,-11
5,CC(=O)c1cccc(NC(=O)c2ccc(C)o2)c1,12.2
6,COc1cc(/C=C2\SC(=S)N(NC(=O)c3ccncc3)C2=O)ccc1O,13.3
7,COCCn1c(SCC(=O)NC(C)c2ccccc2)nc2ccccc21 (centres unmarked),-5.32
8,COCC(C)N1CC(O)=C(c2nc(-c3ccc(Cl)cc3)cs2)C1=N (centres unmarked),13.5
9,ON=C1CCN(c2ncc(C(F)(F)F)cc2Cl)CC1,-9.39
10,O=C(CSc1ccc(F)cc1)NNC(=O)c1ccccc1Br,17.2
11,O=C(OCc1ccccc1)/C(=C/c1cccc2ccccc12)NC(=O)c1ccccc1,10.4
12,NNC(=O)c1oc2nc(-c3ccccc3)cc(-c3ccco3)c2c1N,3.36
13,CCC(C)N(C(=O)CSc1nc(C)nc2ccccc12)C1CCS(=O)(=O)C1 (centres unmarked),-11.1
14,COc1ccc(CNC(=O)[C@@H]2CC=C[C@@H]3CCN(Cc4ccccc4)C(=O)[C@@H]32)cc1,12.7
15,O=C(CN(Cc1ccc(F)cc1)C(=O)c1csnn1)NCc1ccc2c(c1)OCO2,-8.89
16,CN1C(=O)C(=Cc2ccc(N3CCCCCC3)o2)C(=O)N(C)C1=S,19.9
17,O=C(Nc1c(C(=O)N2CCOCC2)cnn1-c1ccccc1)c1cccc(F)c1,4.72
18,O=C/C(=C\Nc1ccc(C(=O)N2CCOCC2)cc1)c1nc2ccccc2o1,2.18
19,COc1ccc(CN2CCCC(C(=O)c3cccc(C(F)(F)F)c3)C2)cc1O (centres unmarked),-6.2
20,CCOC(=O)N1CCN(C(=O)c2ccc(C)c(S(=O)(=O)Nc3cccc(C)c3C)c2)CC1,-13.5
21,CCN(CC)S(=O)(=O)c1ccc(Cl)c(NC(=O)COC(=O)c2ccc([N+](=O)[O-])o2)c1,5.15
22,Cc1ccc(-c2c(C#N)c(N)nc3c2CCCCC3)cc1,14
